# In PubChem BioAssay AID1159614 (National Center for Advancing Translational Sciences (NCATS), 2016):
# Screen size: about 45,000 compounds; about 65 (0.1%) were called active. Calls come from the whole dose curve; as a rule, active = well fitted activation curve with a large enough effect; inconclusive = small, poorly fitted or top-dose-only effect; inactive = no such curve, though single readings can be large or run the other way. The list shows a part of the results.
# Biological target: Galactocerebrosidase (Homo sapiens) (UniProt P54803)
# Assay: A Novel Cell-Based Assay to Identify Small Molecules for B -Galactocerebrosidase; note: 0% is about no effect; nearly all actives have a fitted effect of over 65% in size
# Details: 145M-Twi-hGALC-G270D cells, HMU-beta-Gal fluorescence, 48 h; series mostly up to 57.5 µM; activation: at the top concentration
# In short: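 qHTS, 1536-well; 145M-Twi-hGALC-G270D cells (WT line also made) in DMEM/F12 + 10% FBS; compound incubation on live cells; HMU-β-gal 0.1 mM final, pH 5.2, NaTC; carbonate stop; fluorescence increase = enhanced residual activity.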
# Sequence of UniProt P54803 (P54803 whole entry, looked up): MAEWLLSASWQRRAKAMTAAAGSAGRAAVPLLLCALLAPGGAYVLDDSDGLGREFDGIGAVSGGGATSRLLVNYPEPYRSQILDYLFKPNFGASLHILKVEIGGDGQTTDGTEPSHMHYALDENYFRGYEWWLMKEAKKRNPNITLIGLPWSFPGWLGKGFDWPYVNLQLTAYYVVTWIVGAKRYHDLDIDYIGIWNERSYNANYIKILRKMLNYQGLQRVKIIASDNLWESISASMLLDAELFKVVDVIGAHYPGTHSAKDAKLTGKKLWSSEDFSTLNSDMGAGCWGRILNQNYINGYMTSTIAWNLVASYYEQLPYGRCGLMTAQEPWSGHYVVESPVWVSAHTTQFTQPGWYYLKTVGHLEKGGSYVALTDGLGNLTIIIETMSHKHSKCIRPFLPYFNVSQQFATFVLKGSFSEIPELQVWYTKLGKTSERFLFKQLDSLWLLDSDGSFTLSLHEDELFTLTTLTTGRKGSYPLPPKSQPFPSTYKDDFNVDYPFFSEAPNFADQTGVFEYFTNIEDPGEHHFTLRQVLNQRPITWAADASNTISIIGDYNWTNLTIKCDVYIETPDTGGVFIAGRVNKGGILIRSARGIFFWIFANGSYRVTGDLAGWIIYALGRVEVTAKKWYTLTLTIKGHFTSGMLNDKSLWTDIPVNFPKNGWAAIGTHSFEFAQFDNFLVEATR
row,Structure (SMILES),activation
1,Oc1c(C(c2ccccc2F)N2CCOCC2)sc2nc(-c3ccco3)nn12 (configuration not stated),inactive: -11.8%
2,CCOC(=O)C1CCN(c2c(C(=O)c3ccc(OCC)cc3)cnc3ccc(OC)cc23)CC1,inactive: -23.9%
3,Cc1cccc(NC(=O)c2oc3c(c2C)-c2[nH]ncc2CC3)c1C,inactive: -1.08%
4,COc1ccc(CCNc2nc(-c3ccc(C)cc3)cc(C(F)F)n2)cc1OC,inactive: -20.2%
5,CCOC(=O)c1cccc(NC(=O)CC(c2cc(OC)c(OC)c(OC)c2)N2Cc3ccccc3C2=O)c1 (configuration not stated),inactive: -17.6%
6,CCc1nn2c(-c3ccccc3OC)ccnc2c1-c1ccc(F)cc1,inactive: 6.94%
7,CCn1c(=NC(=O)c2ccc(S(=O)(=O)N3CCCCC3)cc2)sc2cccc(OC)c21,inactive: -15.1%
8,CCOc1ccc(NC(=O)CN2CCN(Cc3ccccc3)S2(=O)=O)cc1,inactive: -3.05%
9,CCN(c1ccccc1)S(=O)(=O)c1ccc2[nH]cc(C(=O)NC3CCCCC3)c(=O)c2c1,inactive: -39.9%
10,Cc1nc2c(C(=O)NCc3ccccc3Cl)c[nH]n2c(=O)c1Cc1cccc(Cl)c1,inactive: -6.06%
11,Cc1c(Cl)cccc1NC(=O)CC(c1cccs1)N1Cc2ccccc2C1=O (configuration not stated),inactive: -35.5%
12,CC(NC(=O)CSc1n[nH]c(-c2ccccc2Cl)n1)c1nc2ccccc2n1C (configuration not stated),inactive: 4.43%
13,CCCCNC(=O)C1CCN(C(=O)N2CC(C)Oc3ccc(Cl)cc32)CC1 (configuration not stated),inactive: -6.5%
14,CCOc1ccccc1-n1c(C)nc2cc(C(=O)O)ccc21,inactive: -22.5%
15,CCOC(=O)N1CCc2c(sc(NCc3sccc3C)c2C(=O)Nc2cc(OC)ccc2OC)C1,inactive: -24.5%
16,CCCCN(C)CCCNC(=O)CN1C(=O)COc2ccc(S(=O)(=O)N3CCC(C)CC3)cc21,inactive: -3.83%
17,Cc1cc(=O)[nH]c2nnc(SCc3ccc(Cl)c(Cl)c3)n12,inactive: -20.4%
18,COc1cccc(NC(=O)CSc2cc(=O)n(C)c3ccc(Cl)cc23)c1,inactive: -12.2%
19,Cn1cnc(S(=O)(=O)N2CCCC(C(=O)NCc3ccccc3Cl)C2)c1 (configuration not stated),inactive: -18%
20,N#C/C(=C\c1ccc(F)cc1)C(=O)NCC1CCCO1 (configuration not stated),inactive: -14.9%
21,Cc1ccc(CCNC(=O)C(CC(C)C)NS(=O)(=O)c2ccc3c(c2)oc(=O)n3C)cc1 (configuration not stated),inactive: -9.13%

row,Structure (SMILES),activation
1,Cc1cccc(C(=O)N2CCc3cc(CNC(=O)c4ccnn4C)ccc32)c1,inactive: -12.5%
2,CCOc1ccccc1NC(=O)CN1C(=O)COc2ccc(S(=O)(=O)N3CCCCCC3)cc21,inactive: -2.87%
3,CCOc1ccccc1NC(=O)Cc1coc2c(C)c(C)ccc12,inactive: -16.5%
4,O=C(COc1ccc(Cl)cc1)Nc1sc2c(c1C(=O)Nc1cccc(Cl)c1)CCCC2,inactive: -14.2%
5,CCOc1ccc(CC(=O)Nc2ccc3c(c2)N(C)C(=O)c2ccccc2S3)cc1OCC,inactive: -8.62%
6,CCc1ccc(OCC(=O)N(Cc2ccc(C)cc2)Cc2ccco2)cc1,inactive: -5.97%
7,Cc1cccc(C)c1-n1ncc(C(=O)NCc2ccc3c(c2)OCO3)c1C1CCN(C(=O)OC(C)(C)C)CC1,inactive: 24.5%
8,CCCN1C(=O)C(O)(CC(=O)c2ccc(CC)cc2)c2cc(Br)ccc21 (configuration not stated),inactive: -29.7%
9,Cc1cccc(OCC(=O)Nc2nonc2-c2ccc(Br)cc2)c1C,inactive: -21.4%
10,CCCCN(C)CCCNC(=O)c1cc(=O)[nH]c2ccc(S(=O)(=O)N3CCCCC3)cc12,inactive: -12.1%
11,CC(=O)N1c2ccc(S(=O)(=O)NCC3CCC(C(=O)Nc4ccccc4C)CC3)cc2CC1C (configuration not stated),inactive: -19.4%
12,O=C(Nc1ccc(OC(F)(F)F)cc1)C1CCCN(S(=O)(=O)c2cccc3nonc23)C1 (configuration not stated),inactive: -12.6%
13,Cc1ccc(NC(=O)CCc2c(C)nc3c(-c4ccccc4)c(C)nn3c2C)c(C)c1,inactive: -16.5%
14,COc1ccc(-n2c(=O)c3ccccc3n(CC(=O)NCCc3ccccc3)c2=O)c(OC)c1,inactive: -24.7%
15,Cc1cccc(-n2cc(-c3ccccc3)c3c(NC(C)C)ncnc32)c1,inactive: 7.41%
16,CC1CCN(S(=O)(=O)c2cn(CC(=O)Nc3ccc(F)c(Cl)c3)c(=O)c3ccccc23)CC1,inactive: -12.1%
17,CCC1=Nc2cc(C(=O)NC(C)c3ccccc3)ccc2Sc2ccc(Cl)cc21 (configuration not stated),inactive: -19%
18,COc1ccc2c(c1)CCc1sc(NC(=O)c3ccc(Cl)cc3)nc1-2,inactive: 11.3%
19,COCCCNC(=O)CN1C(=O)COc2ccc(S(=O)(=O)N3CCCCCC3)cc21,inactive: -12.9%
20,COC(=O)c1ccccc1NC(=O)CN(c1ccccc1OC)S(C)(=O)=O,inactive: 5.51%
21,Cc1ccc(NC(=O)CSc2nc(-c3ccc(F)cc3)nc3c2Cc2c(CO)cnc(C)c2O3)cc1C,inactive: -10.7%

row,Structure (SMILES),activation
1,O=C(CSc1nccn1-c1cccc(Cl)c1)Nc1cccc(C(F)(F)F)c1,inactive: -6.92%
2,CN(Cc1ccccc1)C(=O)CCS(=O)(=O)c1cc(Br)cc2c1N(C(=O)C1CC1)CC2,inactive: -19.7%
3,CC(C)c1ccc(NC(=O)c2ccc(F)c(S(=O)(=O)N3CCCC3)c2)cc1,inactive: -15.3%
4,CC1CCN(C(=O)Cn2cc(SCc3ccccc3)c3ccccc32)CC1,inactive: -11.4%
5,O=C(COc1ccccc1F)Nc1ccccc1OCc1cc(=O)n2ccccc2n1,inactive: -0.325%
6,COc1ccccc1OCC(=O)Nc1nnc2n1CCS2,inactive: -28.3%
7,CCCc1nnc(N2C(=O)c3oc4ccc(F)cc4c(=O)c3C2c2ccc(C(=O)OC)cc2)s1 (configuration not stated),inactive: -16.9%
8,COc1cc2ccccc2cc1C(=O)N1CCN(c2nc3c(C)cc(C)cc3s2)CC1,inactive: -40%
9,CCOc1ccc(-n2cc(C(=O)Nc3ccccc3OCC)c3cc(OC)c(OC)cc3c2=O)cc1,inactive: -30.9%
10,CC1CCN(c2nnc(-n3cccc3CNc3cccc(F)c3)s2)CC1,inactive: -21.4%
11,O=C(C1CCC1)N1CCc2cc(S(=O)(=O)N3CCN(c4ccccc4)CC3)ccc21,inactive: -8.06%
12,CCc1ccccc1NC(=O)N1CCN(c2nnc(C)c3c(C)n(-c4ccccc4)nc23)CC1,inactive: -9.02%
13,CCOC(=O)c1c(NC(=O)CS(=O)(=O)c2ccc(C)cc2)sc2c1CCC(C)C2 (configuration not stated),inactive: -19.2%
14,CC1CCN(C(=O)Cn2cc(SCc3cccc(F)c3)c3ccccc32)CC1,inactive: -11.7%
15,Cc1ccc2nc(-c3ccccc3O)c(Nc3ccccc3C)n2c1,inactive: -25.3%
16,CCC(C(=O)OCCN1CCOC(c2ccccc2)C1C)c1ccccc1 (configuration not stated),inactive: -16.9%
17,Cc1cccc(NC(=O)C2CCN(S(=O)(=O)c3cccc4nsnc34)CC2)c1,inactive: -3.72%
18,CCC(C)NC(=O)Cn1c(=O)n(CC2CCC(C(=O)NC)CC2)c(=O)c2sccc21 (configuration not stated),inactive: -7.15%
19,CCOc1ccccc1NC(=O)N1CCc2c(sc3c2CCCC3)C1c1ccccc1 (configuration not stated),inactive: -19.9%
20,CCOc1ccccc1C(=O)N1CC(=O)Nc2ccc(C)cc2C1c1ccccc1 (configuration not stated),inactive: -10.3%
